US11413278B2, “Compounds and methods for promoting stress resistance” (priority 2015, dated 2022)
The name of at least one read-out is uncertain.

Tested on: WI-38 cells
Details: for Screen 1: Screening, at 10 uM (viability assay by ATP measurement, normalized fold-change shown, >=2.5): 24 h, then 700 μM H2O2 3 h, normalized to DMSO; for Screen 2: Dose response, at 10 uM (viability assay by ATP measurement, normalized fold-change shown, >=1.5) / Screen 3: Dose response, at 20 uM (viability assay by ATP measurement, normalized fold-change shown): H2O2 stress; for Experiment 1, WI-38 cells (under H2O2 stress treatment), at 10 uM (fold change) / Experiment 2, WI-38 cells (under H2O2 stress treatment), at 10 uM (fold change): 10 uM (run along with HDF cells); for Dose response retest, at 10 uM (fold change) / Dose response retest, at 20 uM (fold change) / Library Screening, at 10 uM (fold change): H2O2-resistance of WI-38 cells; for Dose response retest, at 10 uM (fold change) / Dose response retest, at 20 uM (fold change): cherry-picked retest; for H2O2 stress treatment (3 hrs), at 10 uM (fold change): WI-38 cells, H2O2 3 hrs, normalized ATP measurement; for Exp. 1, under H2O2 stress treatment, at 10 uM (fold change): Exp. 1, WI-38 cells; for Exp. 1, under H2O2 stress treatment, at 10 uM (fold change) / Exp. 2, under H2O2 stress treatment, at 10 uM (fold change): normalized ATP measurement (Table 12); for Exp. 2, under H2O2 stress treatment, at 10 uM (fold change): Exp. 2, WI-38 cells

SMILES: CNC(=O)/C(C#N)=C/c1c(Oc2ccc(C(C)(C)C)cc2)nc2ccccn2c1=O [Gr-5D]
- Screen 1: Screening, at 10 uM (viability assay by ATP measurement, normalized fold-change shown, >=2.5): 12.42 fold-change
- Screen 2: Dose response, at 10 uM (viability assay by ATP measurement, normalized fold-change shown, >=1.5): 1.57 fold-change
- Screen 3: Dose response, at 20 uM (viability assay by ATP measurement, normalized fold-change shown): 1.77 fold-change
- Experiment 1, WI-38 cells (under H2O2 stress treatment), at 10 uM (fold change): 1.22 fold change
- Experiment 2, WI-38 cells (under H2O2 stress treatment), at 10 uM (fold change): 1.90 fold change
- Dose response retest, at 10 uM (fold change): 1.57 fold change
- Dose response retest, at 20 uM (fold change): 1.77 fold change
- Library Screening, at 10 uM (fold change): 12.42 fold change
- H2O2 stress treatment (3 hrs), at 10 uM (fold change): 1.40 fold change

SMILES: Cc1cc(N)n(-c2ccccc2C(=O)O)n1 [Gr-6A]
- Screen 1: Screening, at 10 uM (viability assay by ATP measurement, normalized fold-change shown, >=2.5): 9.69 fold-change
- Screen 2: Dose response, at 10 uM (viability assay by ATP measurement, normalized fold-change shown, >=1.5): 3.20 fold-change
- Screen 3: Dose response, at 20 uM (viability assay by ATP measurement, normalized fold-change shown): 5.82 fold-change
- Exp. 1, under H2O2 stress treatment, at 10 uM (fold change): 2.64 fold change
- Exp. 2, under H2O2 stress treatment, at 10 uM (fold change): 2.85 fold change
- Experiment 1, WI-38 cells (under H2O2 stress treatment), at 10 uM (fold change): 2.47 fold change
- Experiment 2, WI-38 cells (under H2O2 stress treatment), at 10 uM (fold change): 3.53 fold change
- Dose response retest, at 10 uM (fold change): 3.20 fold change
- Dose response retest, at 20 uM (fold change): 5.82 fold change
- Library Screening, at 10 uM (fold change): 9.69 fold change
- H2O2 stress treatment (3 hrs), at 10 uM (fold change): 6.26 fold change

SMILES: O=C(/C=C/c1cn(-c2ccccc2)nc1-c1cccnc1)c1ccccc1 [Gr-6B]
- Screen 1: Screening, at 10 uM (viability assay by ATP measurement, normalized fold-change shown, >=2.5): 17.34 fold-change
- Screen 2: Dose response, at 10 uM (viability assay by ATP measurement, normalized fold-change shown, >=1.5): 1.29 fold-change
- Screen 3: Dose response, at 20 uM (viability assay by ATP measurement, normalized fold-change shown): 2.00 fold-change
- Exp. 1, under H2O2 stress treatment, at 10 uM (fold change): 27.64 fold change
- Exp. 2, under H2O2 stress treatment, at 10 uM (fold change): 1.90 fold change
- Experiment 1, WI-38 cells (under H2O2 stress treatment), at 10 uM (fold change): 1.80 fold change
- Experiment 2, WI-38 cells (under H2O2 stress treatment), at 10 uM (fold change): 22.79 fold change
- Dose response retest, at 10 uM (fold change): 1.29 fold change
- Dose response retest, at 20 uM (fold change): 2.00 fold change
- Library Screening, at 10 uM (fold change): 17.34 fold change
- H2O2 stress treatment (3 hrs), at 10 uM (fold change): 1.95 fold change

SMILES: N=C1S/C(=C\c2cn(-c3ccccc3)nc2-c2cccs2)C(=O)N1c1nccs1 [Gr-6C]
- Screen 1: Screening, at 10 uM (viability assay by ATP measurement, normalized fold-change shown, >=2.5): 50.99 fold-change
- Screen 2: Dose response, at 10 uM (viability assay by ATP measurement, normalized fold-change shown, >=1.5): 1.37 fold-change
- Screen 3: Dose response, at 20 uM (viability assay by ATP measurement, normalized fold-change shown): 10.83 fold-change
- Experiment 1, WI-38 cells (under H2O2 stress treatment), at 10 uM (fold change): 1.23 fold change
- Experiment 2, WI-38 cells (under H2O2 stress treatment), at 10 uM (fold change): 5.39 fold change
- Dose response retest, at 10 uM (fold change): 1.37 fold change
- Dose response retest, at 20 uM (fold change): 10.83 fold change
- Library Screening, at 10 uM (fold change): 50.99 fold change
- H2O2 stress treatment (3 hrs), at 10 uM (fold change): 8.07 fold change

SMILES: O=C1NCCCc2cc(Cl)sc21 [O1]
- Screen 1: Screening, at 10 uM (viability assay by ATP measurement, normalized fold-change shown, >=2.5): 2.53 fold-change
- Screen 2: Dose response, at 10 uM (viability assay by ATP measurement, normalized fold-change shown, >=1.5): 1.87 fold-change
- Screen 3: Dose response, at 20 uM (viability assay by ATP measurement, normalized fold-change shown): 2.91 fold-change
- Exp. 1, under H2O2 stress treatment, at 10 uM (fold change): 1.52 fold change
- Exp. 2, under H2O2 stress treatment, at 10 uM (fold change): 1.57 fold change
- Experiment 1, WI-38 cells (under H2O2 stress treatment), at 10 uM (fold change): 1.65 fold change
- Experiment 2, WI-38 cells (under H2O2 stress treatment), at 10 uM (fold change): 2.46 fold change
- Dose response retest, at 10 uM (fold change): 1.87 fold change
- Dose response retest, at 20 uM (fold change): 2.91 fold change
- Library Screening, at 10 uM (fold change): 2.53 fold change
- H2O2 stress treatment (3 hrs), at 10 uM (fold change): 2.14 fold change

SMILES: COCCCN1Cc2cccc(C(N)=O)c2C1=O [O2]
- Screen 1: Screening, at 10 uM (viability assay by ATP measurement, normalized fold-change shown, >=2.5): 2.65 fold-change
- Screen 2: Dose response, at 10 uM (viability assay by ATP measurement, normalized fold-change shown, >=1.5): 4.23 fold-change
- Screen 3: Dose response, at 20 uM (viability assay by ATP measurement, normalized fold-change shown): 7.85 fold-change

SMILES: Cc1sc2nc(SCC(=O)N3CCOCC3)nc(O)c2c1C [O3]
- Screen 1: Screening, at 10 uM (viability assay by ATP measurement, normalized fold-change shown, >=2.5): 2.66 fold-change
- Screen 2: Dose response, at 10 uM (viability assay by ATP measurement, normalized fold-change shown, >=1.5): 1.67 fold-change
- Screen 3: Dose response, at 20 uM (viability assay by ATP measurement, normalized fold-change shown): 2.90 fold-change

SMILES: CO/C(O)=C1\C(C)=NC2=C(C(=O)CC(c3cccs3)C2)C1c1ccc(F)c(F)c1 (stereo not drawn) [O5]
- Screen 1: Screening, at 10 uM (viability assay by ATP measurement, normalized fold-change shown, >=2.5): 2.76 fold-change
- Screen 2: Dose response, at 10 uM (viability assay by ATP measurement, normalized fold-change shown, >=1.5): 1.88 fold-change
- Screen 3: Dose response, at 20 uM (viability assay by ATP measurement, normalized fold-change shown): 0.99 fold-change
